According to PubChem BioAssay AID463173 (ICCB-Longwood Screening Facility, Harvard Medical School, 2010):
Hit rate of the full screen: of about 52,000 compounds, about 4,300 (8.3%) were called active. Rule as the data show it: active = survival mostly below about 52% (no sharp cut-off); inactive = mostly above about 56%. Some of the results follow.

system: DeltatarO mutant; assay: growth inhibition of S. aureus wild type versus tarO mutant, primary screen, teichoic acid synthesis inhibitors, RN4220, OD600 (AID 463173); conditions: OD600, 18 h, hits give low values, screened at 18.75 µg/mL (by protocol)

Row | SMILES | survival
1 | CCc1nnc(NC(=O)c2sc3nc4ccc(OC)cc4cc3c2N)s1 | inactive: 77%
2 | Cc1ccc(CCNC(=O)c2cn(C)c3ccc(S(=O)(=O)N4CCC(C)CC4)cc3c2=O)cc1 | inactive: 72%
3 | Cc1cc(C)c(NC(=O)CCCn2c(C)c3cnn(-c4ccccc4)c(=O)c3c2C)c(C)c1 | inactive: 94%
4 | CCOC(=O)c1c(S(=O)(=O)NCC(=O)Nc2ccc(F)cc2C)c(C)n(C)c1C | inactive: 83%
5 | COc1cc(OC)cc(-c2nc3nc(C)c(CCC(=O)NCCC(C)C)c(C)n3n2)c1 | inactive: 88%
6 | O=C(Nc1ccccc1C(F)(F)F)c1ccncc1 | inactive: 91%
7 | COc1ccccc1NC(=O)CN1C(=O)CSc2ccc(S(=O)(=O)N3CCCC3)cc21 | inactive: 99%
8 | CCN(CC)S(=O)(=O)c1ccc2[nH]cc(C(=O)NCCc3ccccc3)c(=O)c2c1 | inactive: 75%
9 | COc1cc(C2C(=O)N(C3CCCCC3)CC(=O)N2CCC2=CCCCC2)ccc1OC(C)C (stereo unspecified) | inactive: 102%
10 | COc1cccc(CNC(=O)CSc2nnc(C)c3c(C)n(-c4ccccc4)nc23)c1OC | inactive: 83%
11 | CCOC(=O)C1CCCN(C(=O)Cn2ncc3c(C)n(Cc4ccccc4F)c(C)c3c2=O)C1 (stereo unspecified) | inactive: 116%
12 | Cc1cc(C)cc(NC2=C(c3ccccc3)C(=O)c3ccccc32)c1 | active: 39%
13 | COC(=O)CNC(c1ccccc1)c1cc(Br)ccc1NC(=O)c1ccccc1 (stereo unspecified) | inactive: 52%
14 | COc1cccc(-n2cc(C(=O)Nc3cc(OC)c(OC)c(OC)c3)c3ccccc3c2=O)c1 | inactive: 87%
15 | CCOC(=O)c1cccc(NC(=O)c2cc(S(=O)(=O)N3CCCC(C)C3)cn2C)c1 (stereo unspecified) | inactive: 86%
16 | CC(=O)N1N=C(N)SC1(C)c1ccccc1 (stereo unspecified) | inactive: 83%
17 | CC1=C(C(N)=O)C(c2ccc(C)cc2)n2nc(SCc3ccccc3F)nc2N1 (stereo unspecified) | inactive: 67%
18 | CCN(CC)c1ccc(C=C2C(=O)OC3(CCCC3)OC2=O)cc1 | inactive: 83%
19 | CCN(CC)C(=O)N1CCc2cc(OC)c(OC)cc2C1c1cc2cc(C)ccc2n(C(=O)N(CC)CC)c1=O (stereo unspecified) | inactive: 91%
20 | Fc1ccc(N2CCN(c3ncnc4c3nc3n4CCCCC3)CC2)cc1 | inactive: 81%
21 | Cc1cccc(NC(=O)Nc2ccc(Br)cc2)n1 | inactive: 126%
22 | CCOCCCn1c(=N)c(C(=O)NCc2cccnc2)cc2c(=O)n3cc(C)ccc3nc21 | inactive: 79%
23 | CCOC(=O)c1cnc2c(ccc3ccccc32)c1Nc1ccc(OCC)cc1 | active: 5%

Row | SMILES | survival
24 | COc1ccc(S(=O)(=O)c2c(O)c3ccc(C(=O)NCc4ccccc4)cc3[nH]c2=O)cc1 | inactive: 64%
25 | Cc1ccc(-n2nc3c(N4CCC(C(=O)NC(C)c5ccccc5)CC4)nnc(C)c3c2C)cc1 (stereo unspecified) | inactive: 107%
26 | NC(=S)Cc1c[nH]c2ccccc12 | inactive: 91%
27 | CCOc1ccc(Nc2cc(C)nc3nc(Cc4ccc(Cl)cc4)nn23)cc1 | inactive: 62%
28 | O=C(Cn1ccc2ccccc2c1=O)NCCC(=O)Nc1ccc(F)cc1F | inactive: 62%
29 | COc1ccccc1N1CCN(C(=O)c2c(C)oc3ncn(CC(C)C)c(=O)c23)CC1 | inactive: 76%
30 | COCCOC(=O)C1=C(C)NC(=S)NC1c1ccc(C)c(OC)c1 (stereo unspecified) | inactive: 89%
31 | CCN1CCN(c2ccc(NC(=O)c3cccc(Cl)c3Cl)cc2)CC1 | inactive: 92%
32 | COc1ccc(-c2cc(C(F)(F)F)nc(SCC(=O)N3CCCCC3C)n2)cc1OC (stereo unspecified) | inactive: 52%
33 | CCc1cccc(C)c1NC(=O)C1CCN(c2nn3c(=O)cc(C)nc3s2)CC1 | inactive: 119%
34 | O=C(NCc1ccccc1)C1CCCN(c2ncccn2)C1 (stereo unspecified) | inactive: 88%
35 | Cc1onc(-c2c(F)cccc2Cl)c1C(=O)Nc1ccc(OC(C)C)cc1 | inactive: 62%
36 | Cc1ccc2oc(=O)c3cc(C(=O)Nc4ccccc4C(N)=O)sc3c2c1 | inactive: 85%
37 | C/C(=N\NC(N)=O)C1CC(c2ccccc2)C(=O)O1 (stereo unspecified) | inactive: 74%
38 | Cc1ccc2c(c1)N(CC(=O)N1CCCCC1C)C(=O)CO2 (stereo unspecified) | inactive: 93%
39 | CCOC(=O)c1c(N)sc2c(OC)c(Br)ccc12 | active: 1%
40 | CCCC(=O)N1CCCC(c2nc(-c3cccs3)no2)C1 (stereo unspecified) | inactive: 107%
41 | CCN(CC)Cc1c(NC(=O)c2ccc(OC)cc2)sc2c1CCCC2 | inactive: 71%
42 | COc1ccc(CCNC(=O)Cn2c(=O)c3cccn3c3ccc(F)cc32)c(OC)c1 | inactive: 77%
43 | O=C(Nc1ccc2c(c1)oc1ccccc12)C(F)(F)F | inactive: 97%
44 | Cc1ccc(C)c(-c2nnc(NC(=O)c3ccc4c(c3)OCCO4)o2)c1 | inactive: 96%
45 | CC(=O)Nc1ccc(Nc2nc3c(S(=O)(=O)c4cccc(Cl)c4)nnn3c3ccsc23)cc1 | inactive: 54%
46 | COc1ccc(-c2cc(C(=O)Oc3cccc(C)c3)c3cc(C)ccc3n2)cc1 | active: 13%

Row | SMILES | survival
47 | COc1ccc(CCNC(=O)c2cnc3sc(N4CCCCC4)nn3c2=O)cc1OC | inactive: 85%
48 | Cc1oc2ncn(CC(C)C)c(=O)c2c1C(=O)NCCCN1CCC(C)CC1 | inactive: 115%
49 | O=C(COc1ccccc1F)OCc1cc(=O)n2nc(C3CC3)sc2n1 | inactive: 84%
50 | Cc1cc(C)cc(-n2c(C)nc3cc(C(=O)NCc4ccccc4Cl)ccc32)c1 | inactive: 80%
51 | Cc1ccc(NC(=O)CN2C(=O)CCc3cc(S(=O)(=O)N4CCCCC4)ccc32)cc1C | inactive: 112%
52 | CCOc1ccc(NC(=O)N(Cc2c[nH]c3ccccc23)C2CCCCCC2)cc1 | inactive: 79%
53 | Cc1ccc(NC(=O)c2c(C)oc3ccc(O)c(CN4CCOCC4)c23)c(C)c1 | inactive: 89%
54 | COc1ccc(C2C(C(=O)Nc3ccccc3OC)=C(C)Nc3c(C(=O)Nc4ccccc4)cnn32)c(OC)c1 (stereo unspecified) | inactive: 134%
55 | CC(C)CCNC(=O)CCn1c(=O)c2cccn2c2cccnc21 | inactive: 79%
56 | Cc1ccc(OCC(=O)N(Cc2ccco2)Cc2ccco2)cc1C | inactive: 51%
57 | COc1ccc(CCNC(=O)CNCC2CCCO2)cc1OC (stereo unspecified) | inactive: 97%
58 | COc1cn(CC(=O)Nc2ccccc2)c(CN2CCCCC2)cc1=O | inactive: 95%
59 | Cc1ccc(NC(=O)c2cc3c(=O)n(Cc4ccco4)ccc3nc2C)cc1C | inactive: 70%
60 | Cc1ccc(CN(C(=O)COc2ccc(Cl)cc2C)C2CCS(=O)(=O)C2)o1 (stereo unspecified) | inactive: 76%
61 | CCOC(=O)c1c(NC(=O)c2cc(CC(C)C)on2)sc(C(C)=O)c1C | active: 54%
62 | CCCn1c(=O)c2c(nc3n2CCN3c2ccc(C)cc2)n(C)c1=O | inactive: 69%
63 | CSc1ccc(C2c3c(oc4cc(C)cc(C)c4c3=O)C(=O)N2CCO)cc1 (stereo unspecified) | inactive: 67%
64 | COC(=O)c1cn(C(C)C(=O)NCc2ccco2)c2ccccc12 (stereo unspecified) | inactive: 91%
65 | Cc1nc2sc(C(=O)N(C)c3ccccc3)c(NC(=O)c3ccccc3Cl)c2c(C)c1C | inactive: 57%
66 | O=C(COC(=O)c1ccccn1)Nc1ccccc1 | inactive: 101%
67 | CN(C(=O)Cn1cc(S(=O)(=O)N2CCN(c3ccccc3F)CC2)c2ccccc2c1=O)c1ccc(Cl)cc1 | inactive: 94%
68 | COCC(C)NC(=O)c1cnn2c(C(F)F)cc(-c3ccccc3)nc12 (stereo unspecified) | inactive: 74%
69 | O=C(NCCCN1CCN(c2ccccc2F)CC1)c1cc2c(Cl)nc3ccccc3c2s1 | active: 51%

Row | SMILES | survival
70 | Cc1cc(C)c(NC(=O)CN2c3ccccc3S(=O)(=O)c3ccccc32)c(C)c1 | inactive: 106%
71 | Cc1nnc(SCc2ccccc2Cl)c2cc3sccc3n12 | inactive: 100%
72 | O=C(Nc1sc2c(c1C(=O)Nc1ccc(Cl)cc1)CCCC2)c1cccs1 | inactive: 159%
73 | CCCCCOc1ccc(NC(=O)Cc2csc(C)n2)cc1 | inactive: 44%
74 | Cc1ccc(C(=O)Nc2ccccc2C(=O)O)cc1S(=O)(=O)N1CCCCCC1 | inactive: 92%
75 | CC(=O)c1ccc(NC(=O)c2cc(-c3ccc4c(c3)OCO4)on2)cc1 | inactive: 67%
76 | CCc1ccc(-c2nc(CN3CCCC(C(=O)NCc4ccc(C)cc4)C3)c(C)o2)cc1 (stereo unspecified) | inactive: 73%
77 | COC(=O)C(Cc1c[nH]c2ccccc12)NC(C)=O (stereo unspecified) | inactive: 92%
78 | CCn1cc2nc(SCC(=O)Nc3ccccc3F)n(Cc3ccc(C)cc3)c(=O)c2n1 | inactive: 99%
79 | COc1ccc(-c2cc3nc(C)c(CCC(=O)Nc4cccc(C(F)(F)F)c4)c(C)n3n2)c(OC)c1 | inactive: 92%
80 | Cc1ccc(CNC(=O)Nc2cn(CC(C)C)c(=O)c3ccccc23)cc1 | inactive: 73%
81 | Cc1ccnc(NC(=O)c2c(C)oc3ncn(CC(C)C)c(=O)c23)c1 | inactive: 92%
82 | Cc1ccc2[nH]c(C(=O)Nc3ccccc3)cc2c1 | inactive: 60%
83 | CCOc1cc(C2NC(=O)c3c(sc4c3CCN(C)C4)N2)ccc1OC(=O)c1ccccc1Cl (stereo unspecified) | inactive: 146%
84 | COc1ccc(-c2[nH]c(-c3ccccc3)nc2SCC(=O)Nc2ccc3c(c2)OCCO3)cc1 | inactive: 54%
85 | CN1CCN(CCCNC(=O)Cn2c(-c3cccs3)cc3cc(Cl)ccc32)CC1 | inactive: 99%
86 | Cc1ccc(CN2COc3cc(C)c4c(oc(=O)c5ccccc54)c3C2)cc1 | inactive: 65%
87 | CCOc1ccc(NC(=O)c2cnn(-c3ccc(C)c(Cl)c3)c2C2CCNCC2)cc1 | inactive: 70%
88 | COc1cc(OC)c(NC(=O)C(NS(=O)(=O)c2cccc3nsnc23)c2ccccc2)cc1Cl (stereo unspecified) | inactive: 60%
89 | COCCNc1oc(-c2ccc(COc3ccc(OC)cc3)o2)nc1C#N | inactive: 79%
90 | Cc1ccc(NC(=O)CSc2nc3ccccc3c3nc(CCc4c(C)n[nH]c4C)nn23)c(C)c1 | inactive: 99%
91 | Cc1ccc(-c2nn(-c3ccc(F)cc3F)c3c2cnc2c(F)cccc23)cc1 | inactive: 73%
